Sequences with one replicate were seen in a single cluster, so their values are uncertain.
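Note: ATP exposure 15 min at 22 °C before imaging.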

This series concerns ATP. Kind of series: switch fluorescence ratio, 500 uM ATP over buffer (Cy3 cluster intensity, sum of 5 cycles each) (fold (ratio)); higher = stronger signal-on switching upon ATP binding; sequences stand for … in TCGTCGGCAGCGTCAGATGTGTATAAGAGACAGTTTTTTTTTTTTTTTTTTTTTTTTT…TC. As to conditions: aptamer strand: ATP DNA aptamer (quencher-CACCTGGGGGAGTATTGCGGAGGAAGG + anchor), 100 nM annealed; ATP concentration: 500 uM; one replicate. A digest of the protocol:
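Imaging in selection buffer was followed by imaging after 15 min with 500 uM ATP at 22 °C, for Cy3-labelled switching-strand clusters annealed to 100 nM quencher-labelled ATP aptamer on a modified Illumina MiSeq flow-cell. Five of these buffer/ATP cycles ran, separated by NaOH stripping and re-annealing. The fluorescence ratio per cluster is summed target-cycle over summed buffer-cycle Cy3 intensity, averaged per switch-domain sequence; clusters outside 100-1000 RFU were removed.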
In the case of CTAGCGCGTT, the switch fluorescence ratio stood at 0.979.

Take TTGCTGATCA: the switch fluorescence ratio turned out to be 0.988.

With ACGCCGCCGG, the switch fluorescence ratio came to 1.04.

On to TAGACGAAAG, for which the switch fluorescence ratio came out at 0.981.

Regarding GAAGATAAGT, the switch fluorescence ratio came out at 1.

In the case of TTTTTGCCAA, the switch fluorescence ratio turned out to be 1.08.

On to GCCGTACCGC, for which the switch fluorescence ratio is 1.01.

On to GCTGCTGCTG, for which the switch fluorescence ratio worked out at 0.929.

ACCCTGTTG: the switch fluorescence ratio is 0.982.

Turning to CTCGTTAAC, the switch fluorescence ratio came to 1.08.

With TGCTATAGAT, the switch fluorescence ratio was determined as 1.

As to TAAAGCGACC, the switch fluorescence ratio came out at 1.37.

Consider TTTAATGACA, for which the switch fluorescence ratio was 1.04.

As for CTGCTACGCT, the switch fluorescence ratio stood at 1.13.

On to ACTTAGAGTG, for which the switch fluorescence ratio worked out at 1.06.

Regarding TCCGGGGACT, the switch fluorescence ratio turned out to be 1.2.

For the sequence TCGCCAGACA, the switch fluorescence ratio was determined as 1.01.

ACGACTTTGG: the switch fluorescence ratio came to 0.996.

As to CCACAAGTCG, the switch fluorescence ratio worked out at 1.05.

On to TGAGATTCGA, for which the switch fluorescence ratio was 1.04.

Regarding GGCAGGTCGT, the switch fluorescence ratio was found to be 0.996.

Take TGGTGTTAAC: the switch fluorescence ratio was determined as 0.939.

Take GATTGCTAGC: the switch fluorescence ratio stood at 0.998.

As to TGACTAAGGC, the switch fluorescence ratio was 1.03.

Regarding ATGGATCCAT, the switch fluorescence ratio was determined as 0.984.

GCTAGGACCG: the switch fluorescence ratio is 1.09.

Regarding GAAATCGACA, the switch fluorescence ratio was 1.06.

Regarding TTGCGATTGC, the switch fluorescence ratio stood at 1.1.

As to ATTGGCTCAT, the switch fluorescence ratio came to 1.

On to GGCGGTAAAC, for which the switch fluorescence ratio was 1.05.

As for CGCATGGGGC, the switch fluorescence ratio was found to be 1.32.

Regarding CTGGACACGT, the switch fluorescence ratio is 0.972.

Take TTTGGGCGCG: the switch fluorescence ratio amounted to 1.06.

For CCGTAATAAG, the switch fluorescence ratio was 4.85.

On to GGTTTTAGTC, for which the switch fluorescence ratio is 0.977.

For TTGGCCCCCC, the switch fluorescence ratio worked out at 1.01.

GCAGCTTCTT: the switch fluorescence ratio worked out at 0.989.

Take GTCTTTGGA: the switch fluorescence ratio came to 0.992.

Regarding TTTATCCGCT, the switch fluorescence ratio is 1.42.

Consider CTGGAAATGC, for which the switch fluorescence ratio came out at 2.04.

Regarding ATAGTATTGC, the switch fluorescence ratio amounted to 0.993.

In the case of GCTCTATGTT, the switch fluorescence ratio is 0.986.

Regarding AAAGGTGCTC, the switch fluorescence ratio came out at 1.07.

For AGGACATTTC, the switch fluorescence ratio was 1.06.

In the case of GCGGGAAATA, the switch fluorescence ratio worked out at 0.98.

For the sequence CTTTCGAGG, the switch fluorescence ratio was found to be 1.05.

GTGACTGCGG: the switch fluorescence ratio amounted to 0.925.

Take GAGCGAGGTT: the switch fluorescence ratio is 1.

ATATATGCGT: the switch fluorescence ratio was 0.973.

With ACCTAAGTTT, the switch fluorescence ratio stood at 1.05.

As for GGACCGGATA, the switch fluorescence ratio turned out to be 1.

With GTAGGCGCTC, the switch fluorescence ratio was determined as 1.01.

As to ACCTGGGACT, the switch fluorescence ratio came to 1.06.

As to GCTTTGTAGG, the switch fluorescence ratio was determined as 1.03.

Consider GCAAGAGA, for which the switch fluorescence ratio was 1.02.

For the sequence ATATGGTCGG, the switch fluorescence ratio is 0.982.

Regarding GTTACCCGAA, the switch fluorescence ratio came to 0.991.

On to ACGTGGTCGC, for which the switch fluorescence ratio is 0.919.

For TTAAAATCTT, the switch fluorescence ratio was found to be 0.983.

On to GGCGCGTAGG, for which the switch fluorescence ratio amounted to 1.03.

For the sequence ACACAGTTTT, the switch fluorescence ratio came to 1.03.

Take TACAACTTCG: the switch fluorescence ratio is 0.949.

On to TGGTATCATT, for which the switch fluorescence ratio was determined as 0.931.

Consider GATGCGGGAT, for which the switch fluorescence ratio is 1.

For AGCGGAGTTG, the switch fluorescence ratio was determined as 0.972.

Turning to GGTCACGGTT, the switch fluorescence ratio was determined as 1.05.

As to ATTGATGTAG, the switch fluorescence ratio worked out at 1.

With TGCAGATGGT, the switch fluorescence ratio was 0.998.

As for CTGAAGACAT, the switch fluorescence ratio stood at 1.07.

AATAGGATTC: the switch fluorescence ratio stood at 0.966.

On to ACAACCAGTC, for which the switch fluorescence ratio turned out to be 0.855.

As for TTTTTCTAGG, the switch fluorescence ratio worked out at 0.979.

Take TATAGGTAAG: the switch fluorescence ratio is 0.97.

Consider CGCTAGAT, for which the switch fluorescence ratio amounted to 1.07.

Consider GGTAACCAGG, for which the switch fluorescence ratio came to 1.21.

As to GTCACTCTGG, the switch fluorescence ratio came to 1.01.

As to ATCGTCCGTG, the switch fluorescence ratio came to 1.06.

For TCTGATTCA, the switch fluorescence ratio is 0.972.

Regarding GAAATTCGTA, the switch fluorescence ratio worked out at 0.968.
